# Results from paper PMC4336329 (PLoS ONE, 2015).
# Out of some 310,000 compounds screened, about 2,200 (0.71%) showed an effect of 50% or more. The effect is printed as a negative number. The list shows a part of the results.
# Molecular target: human ether-à-go-go-related gene (hERG) potassium channel (human, UniProt Q12809)
# Assay: primary screen, population patch clamp on CHO cells stably expressing hERG
# Sequence of human ether-à-go-go-related gene (hERG) potassium channel (Q12809 whole entry, looked up): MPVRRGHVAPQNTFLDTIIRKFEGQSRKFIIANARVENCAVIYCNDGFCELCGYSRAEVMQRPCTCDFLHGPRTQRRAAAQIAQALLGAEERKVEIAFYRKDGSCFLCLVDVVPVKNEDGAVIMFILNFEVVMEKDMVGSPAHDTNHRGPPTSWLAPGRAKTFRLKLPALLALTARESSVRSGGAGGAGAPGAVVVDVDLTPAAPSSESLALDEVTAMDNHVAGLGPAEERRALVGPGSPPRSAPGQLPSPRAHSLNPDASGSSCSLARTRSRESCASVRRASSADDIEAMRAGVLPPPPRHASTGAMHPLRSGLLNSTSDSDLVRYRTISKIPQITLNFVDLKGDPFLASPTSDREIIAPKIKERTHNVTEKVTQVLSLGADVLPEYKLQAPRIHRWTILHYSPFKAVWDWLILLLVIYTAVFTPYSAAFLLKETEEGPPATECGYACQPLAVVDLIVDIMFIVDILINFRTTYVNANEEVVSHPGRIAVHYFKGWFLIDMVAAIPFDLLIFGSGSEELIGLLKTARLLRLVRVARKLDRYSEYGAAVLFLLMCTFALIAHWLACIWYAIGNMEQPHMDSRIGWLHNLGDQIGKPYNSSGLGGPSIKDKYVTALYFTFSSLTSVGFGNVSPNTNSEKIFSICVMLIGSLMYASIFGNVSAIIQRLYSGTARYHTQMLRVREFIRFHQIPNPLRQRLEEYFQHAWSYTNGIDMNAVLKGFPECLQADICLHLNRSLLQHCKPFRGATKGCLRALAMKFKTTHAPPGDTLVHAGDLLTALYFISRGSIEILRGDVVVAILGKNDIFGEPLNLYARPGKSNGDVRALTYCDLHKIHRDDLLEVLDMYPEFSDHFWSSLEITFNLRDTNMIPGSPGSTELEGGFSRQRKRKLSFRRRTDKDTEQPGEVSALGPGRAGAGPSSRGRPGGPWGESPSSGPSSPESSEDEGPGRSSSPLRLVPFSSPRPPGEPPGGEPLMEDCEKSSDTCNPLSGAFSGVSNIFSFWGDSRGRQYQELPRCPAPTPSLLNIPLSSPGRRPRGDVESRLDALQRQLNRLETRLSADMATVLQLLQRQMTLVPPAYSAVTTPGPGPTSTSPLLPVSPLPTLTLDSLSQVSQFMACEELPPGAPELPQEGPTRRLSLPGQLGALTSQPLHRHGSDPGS
row,SMILES,"hERG current change (%, negative = inhibition) at 1uM [%]"
1,CCS(=O)(=O)c1ccc2oc(Nc3ccccc3C)nc2c1,11.2
2,CCOC(=O)C1=C(C)N(CCCC(=O)O)C(=O)NC1c1ccc(OC)cc1 (stereo not shown),12.7
3,O=S(=O)(Nc1ccccc1N1CCOCC1)c1ccc(F)c(Cl)c1,9.98
4,CCCCN(Cc1nc2ccccc2c(=O)[nH]1)C(=O)COc1ccc(F)cc1Cl,10.5
5,O=C(N=C1c2ccccc2CN1c1ccc(F)c(Cl)c1)c1cccnc1Cl,13.2
6,NNC(=O)CS(=O)(=O)c1ccc(Cl)cc1,7.58
7,CC(C)C(c1nnnn1Cc1ccco1)N1CCN(C2CCCC2)CC1.Cl (stereo not shown),10.2
8,CC[C@H]1OC(=O)[C@H](C)[C@@H](O[C@H]2C[C@@](C)(OC)[C@@H](O)[C@H](C)O2)[C@H](C)[C@@H](O[C@@H]2O[C@H](C)C[C@H](N(C)C)[C@H]2O)[C@](C)(OC)C[C@@H](C)C(=O)[C@H](C)[C@@H](O)[C@]1(C)O,18.9
9,Cc1cccc(NC(=O)CNC(=O)c2ccccc2Cl)n1,3.57
10,Cc1ccc2nc(SCC(=O)Nc3ccc(F)cc3)nc(=O)n2c1,3.45
11,O=C(NCc1ccc2c(c1)OCO2)c1ccc(Cl)c(S(=O)(=O)NCc2ccccc2)c1,-3.23
12,COc1cc(C#N)ccc1OCC(=O)Nc1ccc(C)c(S(=O)(=O)N2CCOCC2)c1,-0.642
13,O=C(NCc1n[nH]c(=S)n1-c1ccc(Br)cc1)c1ccc(S(=O)(=O)N2CCOCC2)cc1,18
14,O=C(O)Cn1cnc2c(=S)nc[nH]c21,12.4
15,Cc1ccc(NC(=O)C2CCCN2C(=O)c2cccs2)c(C)c1 (stereo not shown),9.88
16,COc1ccccc1OCc1nn[nH]n1,19.6
17,O=C(Cc1ccccc1)NC(=S)Nc1cccc(C(F)(F)F)c1,10.7
18,O=C(CSc1c2c(nc3cc(Cl)ccc13)CCCC2)NCc1ccco1,0.391
19,COc1ccc(-c2nn(-c3ccccc3)cc2C#N)cc1,-2.97
20,COc1ccc(-n2nc(C(=O)NCC(=O)NC(C)C)c3ccccc3c2=O)cc1,12.4
21,Cn1c2ccccc2c2cc(/C=C(\NC(=O)c3ccccc3)C(=O)NCC(=O)O)ccc21,2.26
22,CC1(c2nnc(-c3ccncc3)o2)CC(c2cccc(Cl)c2)=NO1 (stereo not shown),13.4

row,SMILES,"hERG current change (%, negative = inhibition) at 1uM [%]"
1,CC1CC(C)CN(C(=O)Cn2c(=O)n(CCCC(=O)NCc3ccco3)c(=O)c3sccc32)C1 (stereo not shown),10.4
2,Cn1ncc(Cl)c1C(=O)N1CCCc2ccccc21,6.48
3,C[C@]12CC[C@@H]3c4ccc(OC(=O)c5ccccc5)cc4CC[C@H]3[C@@H]1CC[C@@H]2O,11.9
4,O=C(Cc1ccc(F)cc1)Oc1ccc(C(=S)N2CCCC2)cc1,10.5
5,COc1ccccc1N1CCC(N2CCN(CC(C)(C)C)C(CCO)C2)CC1 (stereo not shown),10.2
6,CC1CCN(C(c2ccccc2)c2nnnn2C(C)(C)C)CC1.Cl (stereo not shown),2.48
7,O=C1c2ccccc2C(=O)N1CCc1nc(-c2ccccn2)no1,0.867
8,COC(=O)c1ccc(C(=O)OC)c(NC(=O)N2c3ccccc3Sc3ccccc32)c1,11.7
9,CC(C)(C)n1cnc2cc(NS(=O)(=O)c3ccc(Br)cc3)ccc21,6.5
10,O=C(NCc1ccc(F)cc1)c1ccc(NC(=O)C2CCCO2)cc1 (stereo not shown),10.4
11,CC[n+]1ccc(C(=O)NCc2ccccc2)cc1.[Cl-],12.3
12,Cn1cc(CNC(=O)c2cc(-c3ccc(Br)cc3)nc3ccccc23)cn1,8.83
13,O=C(OCC(F)(F)C(F)F)c1ccccc1C(=O)Oc1ccc(F)cc1F,18.7
14,Cn1ccnc1CN1CCCCC1C(=O)Nc1ccc(Oc2cccnc2)cc1 (stereo not shown),7.33
15,CC(NC(=O)C(=O)NCCN1CCN(C(=O)c2ccccc2Br)CC1)c1ccccc1 (stereo not shown),9.08
16,O=C(NCCCn1ccnc1)c1cccc(S(=O)(=O)Nc2ccccc2F)c1,20.5
17,CC(C(=O)Nc1ncn[nH]1)N1C(=O)c2ccccc2C1=O (stereo not shown),15.1
18,Cn1c(N)c(N=Nc2ccc(S(N)(=O)=O)cc2)c(=O)n(C)c1=O,16.5
19,CSc1ncccc1C(=O)OCC(=O)NC(C)C,-1.86
20,COc1cccc(-c2nc3ccc(O)cc3c(=O)o2)c1,7.85
21,CCN(C(=O)CSc1nnc(Nc2ccccc2C)s1)C1CCS(=O)(=O)C1 (stereo not shown),4.78
22,O=C(NCc1ccccc1)C1COc2ccccc2O1 (stereo not shown),5.4

row,SMILES,"hERG current change (%, negative = inhibition) at 1uM [%]"
1,Cc1ccc(C(=O)OCCN2CCN(c3ncc(C(F)(F)F)cc3Cl)CC2)cc1,12.6
2,CC(C)C[C@@]12C(=O)N(c3cccc(F)c3)C(=O)N1[C@H](c1ccc(Br)cc1)[C@@H]1C(=O)N(C(C)(C)C)C(=O)[C@@H]12,12.2
3,CCOC(=O)COc1cccc2c(=O)n(CC(=O)N3CCN(C(=O)OCC)CC3)ccc12,7.52
4,CCCCCn1cc(C(=O)C(=O)N2CCOCC2)c2ccccc21,7.53
5,CC(/C=C/c1ccccc1)=N/NC(=O)CNC(=O)c1ccccc1F,6.33
6,CCN(CC(=O)NC1CCS(=O)(=O)C1)S(=O)(=O)c1ccc(Cl)cc1C(F)(F)F (stereo not shown),0.233
7,Cc1nnc(SC(C)C(=O)Nc2sc3c(c2C#N)CCCC3)[nH]c1=O (stereo not shown),7.88
8,CCN(CC)CCCNC(=O)C1CCN(C(=O)c2cc3sccc3n2Cc2ccc(F)cc2)CC1,11.4
9,COc1ccc(-c2nnc3sc(CN4C(=O)c5ccccc5C4=O)nn23)cc1,14.7
10,CC(=O)c1ccc(C(=O)N2CCCC(CCC(=O)N(C)CCc3ccccn3)C2)s1 (stereo not shown),5.7
11,O=C(NCC1CCCO1)C1CCN(CC2CCCCC2)CC1 (stereo not shown),5.67
12,CSCCC(NC(=O)COc1ccccc1)C(=O)NCCOc1ccc(C)cc1 (stereo not shown),3.41
13,CN1CCN(c2nc3ccccc3c(=O)n2-c2ccccc2)CC1,4.87
14,Cc1ccc(CN2CCN(Cc3nc4ccccc4nc3C)CC2CCO)cc1 (stereo not shown),-65.3
15,CN(C)/C=C(\C(=O)c1ccc(Cl)cc1)c1nnnn1-c1ccc(Cl)cc1,7.83
16,COc1ccc(NS(=O)(=O)c2cc(NC(=O)c3cnccn3)ccc2OC)cc1Br,15.6
17,CC(=O)c1ccc(/C=C/c2nc3ccccc3n2C)o1,10.2
18,COc1ccc(NC(=O)C(c2cc3c(cc2[N+](=O)[O-])OCO3)N2CCN(C=O)CC2)cc1 (stereo not shown),-27.8
19,O=C1CCCN1CC(O)CS(=O)(=O)Cc1ccc(Cl)cc1 (stereo not shown),10.2
20,O=C(N/N=C\c1ccccc1OCc1ccccc1)c1ccco1,20.1
21,COc1ccc(S(=O)(=O)NCC2CCCN(Cc3cn(C)nc3C)C2)cc1 (stereo not shown),15
22,C(=N\N1CCOCC1)/c1cn(-c2ccccc2)nc1-c1ccccc1,2.98

row,SMILES,"hERG current change (%, negative = inhibition) at 1uM [%]"
1,CCc1cccc(NC(=O)C2CCCN(S(=O)(=O)c3cccnc3)C2)c1 (stereo not shown),11.1
2,CC(=O)/C=C\c1cn(-c2ncc(C(F)(F)F)cc2Cl)c2ccccc12,16
3,COCC(=O)N1CCCC(C(=O)c2ccc(Oc3ccccc3)cc2)C1 (stereo not shown),-16.6
4,Cc1cccc(CN2CCN(c3nc4nonc4nc3NC3CC3)CC2=O)c1,10
5,COC(=O)c1ccc(CN2CCCC(CCC(=O)NCc3ccc(C)o3)C2)cc1 (stereo not shown),-20.1
6,Cc1nnc(SC(C(=O)c2ccccc2)c2ccccc2)[nH]c1=O (stereo not shown),11.1
7,Cc1nnc(-c2cnn(C)c2N)n1Cc1cccc(Cl)c1,15.2
8,COc1ccc(CCN(C(=O)C(F)(F)F)C(C(=O)NC2CCCC2)c2cccs2)cc1OC (stereo not shown),9.48
9,O=C(NN=C1c2ccccc2-c2ccccc21)c1ccccn1,7.79
10,COc1ccc(NC(=O)CSc2nc3c(c(=O)n2C)SCC3)cc1OC,-1.01
11,COc1ccc(-c2nc(N)ncc2-c2ccccc2)c(O)c1,2.6
12,CCn1c(C)nnc1SCC(=O)Nc1nccs1,11.8
13,CC(=O)C1=C(C)NC(SCc2cccc3ccccc23)=C(C#N)C1c1ccco1 (stereo not shown),0.669
14,O=C(N/N=C/c1ccc2ccccc2c1)c1ccc(COc2ccc3c(c2)CCC3)o1,5.8
15,O=C(OCc1nc2ccccc2s1)c1ccc(Br)s1,18.6
16,Cc1ccc(N(C(=O)Cc2cccs2)C(C(=O)NC2CCCC2)c2ccncc2)cc1 (stereo not shown),10.2
17,CS(=O)(=O)N(CC(=O)N1CCc2ccccc2C1)c1ccc2c(c1)OCO2,2.09
18,O=c1[nH]c2ccc(NCc3ccc(F)cc3)cc2[nH]1,11.1
19,CCCC(=O)Nc1nc(-c2ccc3c(c2)OCCO3)cs1,2.27
